Results as given in the supplement of paper PMC11417369.
± gives the standard deviation of the averaged measurements. The list shows a part of the results.

Tested on: PfAP2-EXP AP2 domain (GST-tagged)
Experiment: gcPBM binding intensity (ln(normalized median fluorescence intensity)); higher = stronger DNA binding
Procedure, shortened: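 Alexa488 anti-GST antibody, scanned at 488 nm, detected GST-tagged P. falciparum DNA-binding domains that had been expressed in E. coli and incubated for 1 h on an Agilent 4 × 180k array. The array carried primer-extended double-stranded 36-bp intergenic genomic probes and negative controls. Binding intensity is the highest Masliner-normalised natural-log median intensity across replicate spots of either orientation of each probe.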

Sequence | gcPBM binding intensity (ln)
AAAAATGGTGTTAACACACACATATAAATAAATATA [CACACA_site6412] | 8.44 ± 0.35
AACATAAGTAATATTTGTACATATATAATAATATAT [XGTACX_site5123] | 8.31 ± 0.35
TAAATGTGAAATTTTATATTTTATATAATATACAAT [CACACA_negctrl_site76] | 8.07 ± 0.21
AAGGATCACCCACAAACACACATATATATATATATA [CACACA_site559] | 10.4 ± 0.16
CTCTTATACATATTCCTGCACTTATTTTTAAAAACA [GTGCAC_site9620] | 9.12 ± 0.3
ATCATATTTTTATGTGTGCACTTTTTTTTTTTTTTT [GTGCAC_site9555] | 9.02 ± 0.099
AGAGAGAAAGCTATAACATGCAACAATTTTTAGAAA [TGCATGCA_site95] | 8.69 ± 0.37
TCAGAGTGAAGTTATACACACATGGTTTTTTTTTTT [CACACA_site2116] | 8.18 ± 0.66
AGGAGGATATTACACAGTACCCAGTAACTCTACGGA [XGTACX_site1998] | 8.41 ± 0.37
AAGTATGCGTTATATACACACATACATTTATATATC [CACACA_site6207] | 8.47 ± 0.35
TTTTTTTGATAAAAGGTGCTACAAGATGAATACATA | 8.55 ± 0.26
TTTTTTTTTTTAAATACATGCATGTCCTATTTAAAT [TGCATGCA_site494] | 9.14 ± 0.32
ATAAATAAAAAAAAAAAAAAAAAAAAAAAAAAAATA [CACACA_negctrl_site1064] | 7.86 ± 0.61
GTTGTATAAAATAATACATGCATGTCCTACATATAT [TGCATGCA_site162] | 9.43 ± 0.27
GTAATATATTTTTATGGTACACGAACTAGCCAAAAA [XGTACX_site6307] | 8.76 ± 0.38
AGTAATAACTATATATGTACATATATATATTATTAG [XGTACX_site1113] | 8.36 ± 0.3
CCGCATTTTACAGACACACACAATTTATATTACGGT [CACACA_site6974] | 8.76 ± 0.5
TAATATATTTATAAGTGTACACATTATATAAATCCC [XGTACX_site8875] | 8.85 ± 0.32
AAAAGTATAATAAATTGTACTAACAAATATTTATGT [XGTACX_site7721] | 8.41 ± 0.31
AAAAAAAAAAAAAAAAAAAAATATATATATATATAT [GTGCAC_negctrl_site426] | 10.1 ± 0.3
AAAGATGAATTTTTTACACACACCATTTTATAATAT [CACACA_site3676] | 8.66 ± 0.33
TAAAATTTTGTTTGTTGTACTTATTTTCGTGTCAAC [XGTACX_site8277] | 8.79 ± 0.38
TACTTATCGTTAAATTGTACTAAAAAATATTTTTCT [XGTACX_site4665] | 8.53 ± 0.3

Sequence | gcPBM binding intensity (ln)
AATGTAAAACCTCCTACACACACCAATTAACTATTC [CACACA_site2112] | 8.77 ± 0.57
GCCATTGTACCATCCACACACATATATATCTGTATA [CACACA_site5490] | 9.19 ± 0.44
AAAAAAGAAGAGCACACACACATATATAAATATAAA [CACACA_site631] | 8.69 ± 0.49
TTATAATAAAAGGCTTTACAATTATTAAACAAATAA [GTGCAC_negctrl_site480] | 8.21 ± 0.47
TGGTATTAAGGAGAGGGTACAAAAAAAAAAAAAAAA [XGTACX_site1668] | 8.28 ± 0.49
AAATATAAACTCAGCACACAAACATATATATGTCAT [CACACA_site4004] | 8.73 ± 0.49
TTCTAATATTTACATAATATATAGAAATATAAAGGT [XGTACX_negctrl_site504] | 8.73 ± 0.47
GTAGACATTATAATGGTGCAAAAAAATTAACAAAAA [GTGCAC_site9891] | 9.23 ± 0.2
TTTTTTTTTTTTTCTCGTACAAAATAATACCTTTTT [XGTACX_site3867] | 8.64 ± 0.42
ATGGTATAAAAAAATACACACTTATATATATTCTTA [CACACA_site4427] | 8.22 ± 0.36
AAAAAAAACGGACACACACACATACAAAATATATAT [CACACA_site4910] | 8.7 ± 0.38
AGGGAATATTTTTATGCATGTGCTTACACATTACAA [TGCATGCA_site830] | 8.78 ± 0.37
TGGATTTTGTATTAATGTACATATATATATATATAT [XGTACX_site4442] | 10.2 ± 0.51
TATATTATTTATTAGACACACATTATTAATATATTT [CACACA_site1078] | 8.4 ± 0.35
AACAACATTTTGTAATGTACATATTTACTTATATTC [XGTACX_site7251] | 8.46 ± 0.28
CAGATAGACTTATATGCATGCATTCACATACCAACA [TGCATGCA_site163] | 9.76 ± 0.17
TGAAAAGTAAAATACACACACATAATCTAATTTATA [CACACA_site7024] | 8.39 ± 0.53
GGTTAACATAAATATATACACACCAATGATGGCATT [CACACA_site1568] | 8.41 ± 0.34
CCTCTTAATATGTGCACACTAAATTATAACATAATT [CACACA_site3259] | 9.12 ± 0.16
AAATAATTAGAAATAGTGCACATAATTAAGGGATAC | 9.53 ± 0.28
TAGAAATATATAAATTGTACATGTTTGTATAATATA [XGTACX_site2097] | 8.42 ± 0.34
TATATTATTTATTTTTGTACATATTATGAATGAATA [XGTACX_site3971] | 8.67 ± 0.44
CTTCCTTCTAAATGCACACGGAAAGTATAAATGTAT [CACACA_site2501] | 8.79 ± 0.32

Sequence | gcPBM binding intensity (ln)
TTACCTTTAAATGGATGTACAGAAATTTAAATTGTT [XGTACX_site7044] | 8.53 ± 0.4
TATTTGTTTTTATATAGTACATAAATATATATATAT [XGTACX_site7834] | 9.65 ± 0.28
AAAATAAATATGAACACACACATTTATGCCTTTAAA [CACACA_site1271] | 8.21 ± 0.29
AAAAAATAAATAAATACACACACACTAATATATATA [CACACA_site8488] | 8.96 ± 0.28
AGAGATATAAGAAAAGCACACACACCCAAAAAAAAA [CACACA_site8917] | 8.82 ± 0.56
TATATACAAAAAATATGTACATATATATATATATAT [XGTACX_site3497] | 10.1 ± 0.33
ATTATTTATATTATGGTGCATAATTTTGGGTTTCTT | 8.86 ± 0.26
CCCACAAAGGAATATACACACATATATATATATATA [CACACA_site4091] | 10.2 ± 0.13
TAAATATTTTTTTAGACACACATATATCTATGATAT [CACACA_site1107] | 8.22 ± 0.4
TTGAAAATGAAAAAATGTACTTAAAAAAAAGGAACA [XGTACX_site8664] | 8.74 ± 0.45
TCTTTGAATTTTTTAACACACACATGGGTGGATATA [CACACA_site8474] | 8.43 ± 0.39
ATAAAATTGTATAACTGTACATATATATATATATAT [XGTACX_site5596] | 10.1 ± 0.3
ATACATATATACATATGTACATATATATATATATAT [XGTACX_site8206] | 9.9 ± 0.39
AAAAAAATAATTTGTAGTACGATTCAATGAAAAGGC [XGTACX_site1287] | 8.84 ± 0.38
GGATATAACAGACACACACACACATATAAATATATT [CACACA_site7866] | 8.68 ± 0.51
TTTTTTCTTAAAGACATATATTTATTTGGTAAAACA [XGTACX_negctrl_site243] | 8.11 ± 0.42
ATGCTATATTAAAAACGTACAAACTGTTTAGAAAAA [XGTACX_site8943] | 8.49 ± 0.33
CAAAATAAAAATTAATGTACATAAAAAATGAATATA [XGTACX_site1085] | 8.79 ± 0.35
TATTTACATTTATGTGCACACATTCCATTTGAAAGT [CACACA_site1954] | 8.9 ± 0.071
AATAGAAAAAAAAAATGTACACATATAAAAGCATAT [XGTACX_site6306] | 8.87 ± 0.45
CGGACATACATAGGAACATGCAAAATTTTTTATTTT [TGCATGCA_site575] | 8.65 ± 0.44
TATTTTCTTTTTCTTGTACACACATAATATGGATGA [CACACA_site8168] | 8.79 ± 0.39
TTGTTATATTACAGTAGTACATTTAAAATCTACTAC [XGTACX_site2620] | 8.56 ± 0.4

Sequence | gcPBM binding intensity (ln)
TTTTTTTTTTTTTTTTGTACGTAAAAAAATATATAC [XGTACX_site1290] | 8.36 ± 0.22
AATATTTATACTATAACACACATACAGACAAAAAAA [CACACA_site6396] | 8.85 ± 0.4
TTACATTATATACATACACACCCACCCACAAAAAAA [CACACA_site8187] | 9.82 ± 0.69
ATTTTTATTTACAACCCCAAAAAGGAAAAACATAAA [CACACA_negctrl_site1169] | 8.86 ± 0.71
ATAATATCATCAAACGCACACATACATAAATATATT [CACACA_site5230] | 8.63 ± 0.39
TATTTTTATAATATATGTACATATATATATATATTA [XGTACX_site5343] | 8.38 ± 0.37
ACATATTATATGAATACACACAAAAACTTATCGGTA [CACACA_site3439] | 8.54 ± 0.39
ACAGGAAAAAACAATTGTACATGTATATATATATAT [XGTACX_site7677] | 10.1 ± 0.35
ATATATATATATATATGTACATATTTTATTTGAAAT [XGTACX_site7411] | 10.1 ± 0.38
GCATAATATACTCTTACACACCATTTCTAAATACAT [CACACA_site4912] | 8.9 ± 0.48
AAGACAATATATGCAGTGCATATACATACATATATA | 8.65 ± 0.25
AAAAAAAAAAAAAAAAGTACGTATTTTTTTTAAAAT [XGTACX_site2654] | 8.79 ± 0.22
TTCGTCTTTTTTCTCACACACCCTTTTTATTAAAAG [CACACA_site7225] | 9.01 ± 0.59
AATAATATACCTCTTGTGCACATATTAAAAGTTCAT [GTGCAC_site9536] | 8.97 ± 0.22
ATAATACAAAACACAAGTACATAAATTAAAAAGATG [XGTACX_site7839] | 9.01 ± 0.4
AGAATTAAAATAAAGGTGCATTTTTTTGTTTCATGT | 8.82 ± 0.4
AAAGAATACATATATTGTACATATATATATACCGTT [XGTACX_site6250] | 8.74 ± 0.69
AGTTATTTTATAGAATATGAATAATTTTACTTTTCA [XGTACX_negctrl_site403] | 7.97 ± 0.39
TTCATTCATTTTATTACACACAAAAAAAAAAAAAAA [CACACA_site3680] | 8.05 ± 0.51
AATTTCATTTTACTTATCTAATATTTATAATCTTTT [CACACA_negctrl_site636] | 8.46 ± 0.42
AAAAAAAAAGGTACTACACACTATTCTCAATAGAAA [CACACA_site6193] | 8.4 ± 0.48
